Measured values as given in paper PMC7010746.
No constants are given. Whether binding was seen depends on the method and setting. In cells and extracts the contact can be indirect. Some results given as binding are weak or reduced against the parent protein; the word gives no strength. Tags and fused reporters may be left off the sequences shown.

Chains of the proteins cited; added tags and fusions are not shown.
UniProt Q92793: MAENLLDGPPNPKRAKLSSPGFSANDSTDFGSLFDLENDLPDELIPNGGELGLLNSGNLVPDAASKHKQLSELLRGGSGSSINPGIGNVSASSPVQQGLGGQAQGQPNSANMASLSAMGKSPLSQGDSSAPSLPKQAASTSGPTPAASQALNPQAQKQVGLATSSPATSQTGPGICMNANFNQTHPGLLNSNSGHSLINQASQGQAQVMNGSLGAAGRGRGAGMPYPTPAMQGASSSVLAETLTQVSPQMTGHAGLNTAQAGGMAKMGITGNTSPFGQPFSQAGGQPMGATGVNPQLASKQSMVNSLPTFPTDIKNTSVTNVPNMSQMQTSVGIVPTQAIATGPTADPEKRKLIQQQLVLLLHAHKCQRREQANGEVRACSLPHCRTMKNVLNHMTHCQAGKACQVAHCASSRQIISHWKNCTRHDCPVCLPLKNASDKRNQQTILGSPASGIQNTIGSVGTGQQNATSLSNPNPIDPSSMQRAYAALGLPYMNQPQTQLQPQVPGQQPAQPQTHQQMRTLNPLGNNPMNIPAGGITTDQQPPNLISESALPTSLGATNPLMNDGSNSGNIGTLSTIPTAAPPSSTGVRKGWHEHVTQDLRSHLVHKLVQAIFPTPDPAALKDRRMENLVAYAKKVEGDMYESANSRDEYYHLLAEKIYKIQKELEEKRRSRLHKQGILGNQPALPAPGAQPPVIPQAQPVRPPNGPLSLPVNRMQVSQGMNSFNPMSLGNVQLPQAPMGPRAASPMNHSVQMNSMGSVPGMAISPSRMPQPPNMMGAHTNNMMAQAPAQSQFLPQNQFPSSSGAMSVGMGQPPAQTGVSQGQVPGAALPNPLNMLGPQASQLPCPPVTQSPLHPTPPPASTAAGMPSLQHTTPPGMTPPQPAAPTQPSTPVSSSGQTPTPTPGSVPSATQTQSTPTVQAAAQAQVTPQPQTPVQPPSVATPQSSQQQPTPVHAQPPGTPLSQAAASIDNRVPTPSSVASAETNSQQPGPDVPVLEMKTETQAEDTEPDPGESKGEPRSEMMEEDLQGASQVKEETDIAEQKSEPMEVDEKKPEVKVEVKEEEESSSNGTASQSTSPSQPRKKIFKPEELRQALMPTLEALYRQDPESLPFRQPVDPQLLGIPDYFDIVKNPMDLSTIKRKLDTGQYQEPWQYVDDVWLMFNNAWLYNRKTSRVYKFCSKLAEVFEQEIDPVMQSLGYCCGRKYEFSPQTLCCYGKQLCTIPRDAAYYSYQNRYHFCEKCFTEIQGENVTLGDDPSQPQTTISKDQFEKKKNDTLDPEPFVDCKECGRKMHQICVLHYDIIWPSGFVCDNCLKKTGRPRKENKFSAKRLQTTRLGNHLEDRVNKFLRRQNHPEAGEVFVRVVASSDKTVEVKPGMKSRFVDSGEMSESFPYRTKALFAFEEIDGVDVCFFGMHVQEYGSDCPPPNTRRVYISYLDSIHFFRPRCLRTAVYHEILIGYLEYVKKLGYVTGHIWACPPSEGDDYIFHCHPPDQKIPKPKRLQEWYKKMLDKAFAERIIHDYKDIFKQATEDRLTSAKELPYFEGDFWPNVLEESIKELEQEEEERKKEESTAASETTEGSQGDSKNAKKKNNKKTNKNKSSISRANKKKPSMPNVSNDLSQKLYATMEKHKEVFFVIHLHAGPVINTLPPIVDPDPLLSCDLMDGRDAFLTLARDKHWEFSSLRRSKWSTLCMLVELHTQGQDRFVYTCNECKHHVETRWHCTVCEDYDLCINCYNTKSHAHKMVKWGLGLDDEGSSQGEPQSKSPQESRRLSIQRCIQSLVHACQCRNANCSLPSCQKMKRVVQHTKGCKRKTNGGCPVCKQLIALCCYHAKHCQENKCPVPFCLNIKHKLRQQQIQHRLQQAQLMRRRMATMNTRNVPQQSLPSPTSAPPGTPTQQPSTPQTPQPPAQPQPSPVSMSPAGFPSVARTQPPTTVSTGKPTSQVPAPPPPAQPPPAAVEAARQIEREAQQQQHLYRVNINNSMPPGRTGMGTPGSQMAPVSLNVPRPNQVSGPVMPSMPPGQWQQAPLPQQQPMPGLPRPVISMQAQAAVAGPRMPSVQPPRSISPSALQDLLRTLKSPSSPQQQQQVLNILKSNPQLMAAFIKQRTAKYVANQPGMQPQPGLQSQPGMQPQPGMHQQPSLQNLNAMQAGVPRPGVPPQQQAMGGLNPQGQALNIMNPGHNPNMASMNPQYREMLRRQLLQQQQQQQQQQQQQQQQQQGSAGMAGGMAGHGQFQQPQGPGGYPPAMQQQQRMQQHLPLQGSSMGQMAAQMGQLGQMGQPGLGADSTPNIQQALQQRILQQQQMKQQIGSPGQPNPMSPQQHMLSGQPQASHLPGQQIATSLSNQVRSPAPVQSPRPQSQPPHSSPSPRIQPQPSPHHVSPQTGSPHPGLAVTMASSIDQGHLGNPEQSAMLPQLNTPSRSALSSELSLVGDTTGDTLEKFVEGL
UniProt A9QM74: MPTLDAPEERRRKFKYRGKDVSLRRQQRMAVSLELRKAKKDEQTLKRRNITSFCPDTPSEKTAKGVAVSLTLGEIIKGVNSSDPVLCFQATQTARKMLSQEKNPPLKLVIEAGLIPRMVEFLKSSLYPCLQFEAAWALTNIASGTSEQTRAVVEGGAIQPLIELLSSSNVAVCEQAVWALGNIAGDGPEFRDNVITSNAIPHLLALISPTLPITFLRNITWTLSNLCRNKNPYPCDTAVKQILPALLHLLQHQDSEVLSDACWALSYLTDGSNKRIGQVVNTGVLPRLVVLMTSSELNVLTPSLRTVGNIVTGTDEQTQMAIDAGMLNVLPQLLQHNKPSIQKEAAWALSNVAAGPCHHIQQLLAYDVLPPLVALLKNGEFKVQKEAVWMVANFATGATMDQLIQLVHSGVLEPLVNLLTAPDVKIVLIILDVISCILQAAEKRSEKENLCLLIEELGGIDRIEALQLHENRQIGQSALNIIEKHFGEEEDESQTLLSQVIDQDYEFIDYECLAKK
UniProt Q92973: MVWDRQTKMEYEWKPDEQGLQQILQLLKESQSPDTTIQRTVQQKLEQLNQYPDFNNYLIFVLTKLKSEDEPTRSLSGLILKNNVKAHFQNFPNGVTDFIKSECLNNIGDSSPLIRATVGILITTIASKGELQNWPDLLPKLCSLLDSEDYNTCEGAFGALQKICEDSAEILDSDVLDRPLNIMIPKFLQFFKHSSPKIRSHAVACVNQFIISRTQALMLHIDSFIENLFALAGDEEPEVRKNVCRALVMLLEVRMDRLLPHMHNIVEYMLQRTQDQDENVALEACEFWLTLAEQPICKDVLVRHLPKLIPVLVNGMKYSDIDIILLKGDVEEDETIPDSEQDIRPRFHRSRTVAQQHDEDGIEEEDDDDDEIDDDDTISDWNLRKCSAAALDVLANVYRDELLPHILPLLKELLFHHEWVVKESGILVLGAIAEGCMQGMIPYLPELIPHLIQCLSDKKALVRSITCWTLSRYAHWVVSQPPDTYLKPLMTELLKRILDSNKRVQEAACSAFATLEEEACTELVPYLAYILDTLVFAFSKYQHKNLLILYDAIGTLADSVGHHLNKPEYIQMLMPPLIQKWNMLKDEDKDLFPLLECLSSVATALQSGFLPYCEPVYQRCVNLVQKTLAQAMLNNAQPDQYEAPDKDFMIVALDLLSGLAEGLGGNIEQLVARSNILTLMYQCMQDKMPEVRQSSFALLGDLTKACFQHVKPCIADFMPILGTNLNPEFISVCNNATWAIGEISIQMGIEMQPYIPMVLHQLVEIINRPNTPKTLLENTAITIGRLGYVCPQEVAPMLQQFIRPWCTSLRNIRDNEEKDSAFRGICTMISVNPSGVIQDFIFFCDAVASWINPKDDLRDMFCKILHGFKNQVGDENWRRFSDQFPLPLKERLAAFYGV

Key:
[1] = biological target: T1, SIRT2^1–356 (truncated SIRT2 lacking the unstructured C-terminal end), C-terminal GFP (UniProt Q8IXJ6); assay: co-IP; HeLa cells transfected with GFP-tagged SIRT2 or GFP alone, RIPA lysate, GFP-Trap agarose beads 1 h at 4 °C, washes up to 300 mM NaCl, Western blot of endogenous proteins
T1 sequence: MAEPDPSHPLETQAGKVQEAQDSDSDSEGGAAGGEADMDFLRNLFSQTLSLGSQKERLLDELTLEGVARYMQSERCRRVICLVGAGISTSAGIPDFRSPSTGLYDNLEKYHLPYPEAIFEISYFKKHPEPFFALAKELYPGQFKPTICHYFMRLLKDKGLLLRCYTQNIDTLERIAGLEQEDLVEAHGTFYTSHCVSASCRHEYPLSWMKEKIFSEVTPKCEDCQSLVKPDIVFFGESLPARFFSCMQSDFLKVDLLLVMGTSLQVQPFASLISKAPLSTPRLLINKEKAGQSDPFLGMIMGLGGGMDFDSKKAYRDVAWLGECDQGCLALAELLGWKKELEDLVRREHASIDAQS

[2] = biological target: T2, SIRT2 (isoform 1) tagged at its C-terminus with GFP (UniProt Q8IXJ6); assay: as above
T2 sequence: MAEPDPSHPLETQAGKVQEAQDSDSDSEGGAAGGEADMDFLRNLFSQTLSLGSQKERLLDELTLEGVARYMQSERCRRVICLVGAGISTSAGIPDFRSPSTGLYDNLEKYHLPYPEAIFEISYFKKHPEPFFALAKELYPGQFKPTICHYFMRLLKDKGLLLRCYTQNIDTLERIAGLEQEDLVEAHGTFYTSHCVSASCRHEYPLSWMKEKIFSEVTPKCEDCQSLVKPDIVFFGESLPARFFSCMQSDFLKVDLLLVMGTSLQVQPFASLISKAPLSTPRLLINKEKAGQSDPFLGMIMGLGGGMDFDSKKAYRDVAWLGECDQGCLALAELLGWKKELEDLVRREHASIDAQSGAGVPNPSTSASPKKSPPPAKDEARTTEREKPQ

[3] = biological target: T3, SIRT2^1–356 tagged at its N-terminus with mCherry (UniProt Q8IXJ6); assay: co-IP; HeLa cells transfected with mCherry-tagged SIRT2, RIPA lysate, RFP-Trap agarose beads, Western blot (Fig. S2B)
T3 sequence: T1 sequence

[4] = biological target: T4, SIRT2 with an N-terminal mCherry tag (UniProt Q8IXJ6); assay: as above
T4 sequence: T2 sequence

[5] = biological target: T2, SIRT2 (isoform 1) tagged at its C-terminus with GFP; assay: co-IP; immunoprecipitation from HEK293T cells, Western blot (Fig. S2A)

Substance | binding [1] | binding [2] | binding [3] | binding [4] | binding [5]
CREB-binding protein (CBP) (from UniProt Q92793 1-2442) | binds | binds | – | – | –
KPNA7 (from UniProt A9QM74 1-516) | – | no binding | – | – | –
Transportin 1 (TNPO1) (from UniProt Q92973 1-898) | binds | binds | binds | binds | binds
